Part of at least one peptide drawing is inferred or uncertain, most often the ends.
Columns and labels:
human GIPR = molecular target: T1, human GIPR (Homo sapiens, UniProt P48546); assay: Agonist activity on human GIPR, CRE-luciferase reporter assay with increase in intracellular cAMP as indicator (hGIPR/CRE-LUC/CHO-K1 cell); type: cell-based; conditions: 4 hours incubation, 100% = 10 nM GIP, read-out: hGIPR (polyclonal) Reporter (EC50)
T1 construct: FLAG (N)
T1 sequence (P48546 22-466): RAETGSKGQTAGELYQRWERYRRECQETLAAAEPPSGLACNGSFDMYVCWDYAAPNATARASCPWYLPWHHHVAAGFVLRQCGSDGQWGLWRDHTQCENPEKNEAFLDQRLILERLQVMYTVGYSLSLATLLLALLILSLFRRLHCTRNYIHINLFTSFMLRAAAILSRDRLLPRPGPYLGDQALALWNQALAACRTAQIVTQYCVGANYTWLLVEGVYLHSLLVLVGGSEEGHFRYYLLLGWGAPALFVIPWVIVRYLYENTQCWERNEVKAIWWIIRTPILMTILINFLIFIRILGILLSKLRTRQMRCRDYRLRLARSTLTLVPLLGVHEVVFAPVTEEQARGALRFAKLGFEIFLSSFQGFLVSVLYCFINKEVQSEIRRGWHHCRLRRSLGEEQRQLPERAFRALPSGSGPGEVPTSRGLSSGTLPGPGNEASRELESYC
Text: (§1) Evaluation of Agonist Activity on Human GIPR and Human GLP-1R with Increase in Intracellular cAMP Concentration as Indicator
(§2) A) Evaluation of Agonist Activity on Human GIPR and Human GLP-IR with Increase in Intracellular cAMP Concentration as Indicator
(1) Construction of Expression Plasmid of Human GIPR Gene. The Human GIPR Gene Having an Identical Sequence to Genebank Accession No. U39231 was Cloned into a pMSRα-Neo Vector to Prepare hGIPR/pMSRα-Neo.
(2) Construction of Reporter Plasmid Expressing Cell Luciferase Reporter Gene with a cAMP-Responsive Sequence Located Upstream was Transferred to a CHO-K1 Cell to Construct a CRE-LUC/CHO-K1 Cell.
(§3) (3) Construction of Reporter Plasmid
(§4) Four Copies of a cAMP responsive sequence and a Zeocin resistance gene were transferred to pGL3(R2.2)-Basic Vector (Promega) to construct a Cre-luc(Zeo) reporter plasmid.
(4) Transfer of Human GIPR Gene to CRE-LUC/CHO-K1 Cell and Obtaining of Expressing Cell the Plasmid hGIPR/pMSRα-Neo Obtained in (1) was Transferred to the CRELUC.
CHO-K1 cell obtained in (2) to obtain a transformant. Subsequently, the cell line inducing the luciferase expression, hGIPR/CRE-LUC/CHO-K1 cell, was selected from the obtained transformant by adding GIP.
(§5) 25 μL each of the hGIPR/CRE-LUC/CHO-K1 cell was inoculated in a 384-well white plate (Corning) in such a way as to provide 5×10^3 cells/well and cultured in a HamF12 medium containing 10% fetal bovine serum, 100 U/mL penicillin, and 100 μg/mL streptomycin in a CO2 incubator at 37° C. overnight. 5 μL of a medium containing a test compound was added to the cells and incubated for 4 hours at the indicated concentration in a CO2 incubator at 37° C. Steady-Glo (Promega) was added in amounts of 30 μL and shaken under light shielding. 20 Minutes later, luciferase activity was measured using a plate reader Envision (PerkinElmer). The GIPR agonist activity was calculated with increase in intracellular cAMP concentration as the indicator when the luciferase activity in the presence of 10 nM of GIP was 100% and the luciferase activity in the case of adding DMSO instead of the test compound was 0%.

human GLP-1R = molecular target: T2, human GLP-1R (Homo sapiens, UniProt P43220); assay: Agonist activity on human GLP-1R, CRE-luciferase reporter assay with increase in intracellular cAMP as indicator (hGLP-1R/CRE-luc/CHO-K1 cell); type: cell-based; conditions: 100% = 10 nM GLP-1, read-out: hGLP-1R (Reporter gene assay) (EC50)
T2 construct: FLAG (N)
Text: as §1, §2, §3, §4
(5) Construction of Expression Plasmid of Human GLP-1R Gene
The human GLP-IR gene having an identical sequence to Genebank Accession No. NM_002062 was cloned into a pIRESneo3 vector to prepare hGLP-1/pIRESneo3.
(6) Transfer of Human GLP-1R Gene and Reporter Plasmid to CHO-K1 Cell and Obtaining of Expressing Cell
The Cre-luc (Zeo) obtained in (3) and the plasmid hGLP-1/pIRESneo3 obtained in (5) were transferred to the CHO-K1 cell to obtain a transformant. Subsequently, the cell line inducing the luciferase expression, hGLP-1R/CRE-luc/CHO-K1 cell, was selected from the obtained transformant by adding GLP-1.
as §5
The GLP-IR agonist activity was assayed in the same manner as above using the hGLP-1R/CRE-luc/CHO-K1 cell.

T2 sequence (P43220 24-463): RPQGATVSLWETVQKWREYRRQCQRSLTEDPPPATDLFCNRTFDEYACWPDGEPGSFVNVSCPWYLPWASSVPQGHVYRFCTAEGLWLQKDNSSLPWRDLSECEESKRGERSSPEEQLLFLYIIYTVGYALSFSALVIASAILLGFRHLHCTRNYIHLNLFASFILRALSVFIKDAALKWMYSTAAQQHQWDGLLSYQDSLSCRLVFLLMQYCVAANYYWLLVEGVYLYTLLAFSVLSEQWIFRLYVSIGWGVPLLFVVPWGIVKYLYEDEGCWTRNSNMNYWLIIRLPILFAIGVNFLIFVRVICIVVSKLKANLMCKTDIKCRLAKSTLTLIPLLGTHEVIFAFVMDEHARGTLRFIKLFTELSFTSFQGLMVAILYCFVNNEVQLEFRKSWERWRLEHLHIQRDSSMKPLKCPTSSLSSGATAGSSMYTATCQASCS

SMILES | EC50 (human GIPR) [nM] | EC50 (human GLP-1R) [nM]
CC[C@H](C)[C@H](NC(=O)[C@H](CO)NC(=O)[C@H](Cc1ccc(O)cc1)NC(=O)[C@H](CC(=O)O)NC(=O)[C@H](CO)NC(=O)[C@@H](NC(=O)[C@](C)(CC)NC(=O)[C@@H](NC(=O)CNC(=O)[C@H](CCC(=O)O)NC(=O)C(C)(C)NC(=O)[C@H](Cc1ccc(O)cc1)NC)[C@@H](C)O)[C@@H](C)CC)C(=O)NC(C)(C)C(=O)N[C@@H](CC(C)C)C(=O)N[C@@H](CC(=O)O)C(=O)N[C@@H](CCCNC(=N)N)C(=O)NC(C)(C)C(=O)N[C@@H](C)C(=O)N[C@@H](CCC(N)=O)C(=O)NC(C)(C)C(=O)N[C@@H](CC(N)=O)C(=O)N[C@@H](Cc1ccccc1)C(=O)N[C@H](C(=O)N[C@@H](CC(N)=O)C(=O)N[C@@H](Cc1c[nH]c2ccccc12)C(=O)N[C@@](C)(CC)C(=O)N[C@@H](CC(C)C)C(=O)N[C@@H](C)C(=O)N[C@@H](CCC(N)=O)C(=O)N[C@@H](CCCNC(=N)N)C(=O)N1CCC[C@H]1C(=O)N[C@@H](CO)C(=O)N[C@@H](CO)C(=O)N[C@@H](CCCCNC(=O)CNC(=O)CNC(=O)CNC(=O)CNC(=O)CNC(=O)CNC(=O)CCCCCCCCCCCCCCCCCCC(=O)O)C(=O)N[C@@H](C)C(=O)N1CCC[C@H]1C(=O)N1CCC[C@H]1C(=O)N1CCC[C@H]1C(=O)N[C@@H](CO)C(=O)N[C@@H](CCCNC(=N)N)C(N)=O)C(C)C [Compound 81] | 0.023 | > 1000
CC[C@H](C)[C@H](NC(=O)[C@H](CO)NC(=O)[C@H](Cc1ccc(O)cc1)NC(=O)[C@H](CC(=O)O)NC(=O)[C@H](CO)NC(=O)[C@@H](NC(=O)[C@](C)(CC)NC(=O)[C@@H](NC(=O)CNC(=O)[C@H](CCC(=O)O)NC(=O)C(C)(C)NC(=O)[C@H](Cc1ccc(O)cc1)NC)[C@@H](C)O)[C@@H](C)CC)C(=O)NC(C)(C)C(=O)N[C@@H](CC(C)C)C(=O)N[C@@H](CC(=O)O)C(=O)N[C@@H](CCCNC(=N)N)C(=O)NC(C)(C)C(=O)N[C@@H](C)C(=O)N[C@@H](CCC(N)=O)C(=O)NC(C)(C)C(=O)N[C@@H](CC(N)=O)C(=O)N[C@@H](Cc1ccccc1)C(=O)N[C@H](C(=O)N[C@@H](CC(N)=O)C(=O)N[C@@H](Cc1c[nH]c2ccccc12)C(=O)N[C@@](C)(CC)C(=O)N[C@@H](CC(C)C)C(=O)N[C@@H](C)C(=O)N[C@@H](CCC(N)=O)C(=O)N[C@@H](CCCNC(=N)N)C(=O)N1CCC[C@H]1C(=O)N[C@@H](CO)C(=O)N[C@@H](CO)C(=O)NCC(=O)N[C@@H](CCCCNC(=O)CNC(=O)CNC(=O)CNC(=O)CNC(=O)CNC(=O)CNC(=O)CCCCCCCCCCCCCCCCCCC(=O)O)C(=O)N1CCC[C@H]1C(=O)N1CCC[C@H]1C(=O)N1CCC[C@H]1C(=O)N[C@@H](CO)C(=O)N[C@@H](CCCNC(=N)N)C(N)=O)C(C)C [Compound 82] | 0.037 | > 1000
CC[C@H](C)[C@H](NC(=O)[C@H](CO)NC(=O)[C@H](Cc1ccc(O)cc1)NC(=O)[C@H](CC(=O)O)NC(=O)[C@H](CO)NC(=O)[C@@H](NC(=O)[C@](C)(CC)NC(=O)[C@@H](NC(=O)CNC(=O)[C@H](CCC(=O)O)NC(=O)C(C)(C)NC(=O)[C@H](Cc1ccc(O)cc1)NC)[C@@H](C)O)[C@@H](C)CC)C(=O)NC(C)(C)C(=O)N[C@@H](CC(C)C)C(=O)N[C@@H](CC(=O)O)C(=O)N[C@@H](CCCNC(=N)N)C(=O)NC(C)(C)C(=O)N[C@@H](C)C(=O)N[C@@H](CCC(N)=O)C(=O)NC(C)(C)C(=O)N[C@@H](CC(N)=O)C(=O)N[C@@H](Cc1ccccc1)C(=O)N[C@H](C(=O)N[C@@H](CC(N)=O)C(=O)N[C@@H](Cc1c[nH]c2ccccc12)C(=O)N[C@@](C)(CC)C(=O)N[C@@H](CC(C)C)C(=O)N[C@@H](C)C(=O)N[C@@H](CCC(N)=O)C(=O)N[C@@H](CCCNC(=N)N)C(=O)N1CCC[C@H]1C(=O)N[C@@H](CO)C(=O)N[C@@H](CO)C(=O)NCC(=O)N[C@@H](C)C(=O)N1CCC[C@H]1C(=O)N1CCC[C@H]1C(=O)N[C@@H](CCCCNC(=O)CNC(=O)CNC(=O)CNC(=O)CNC(=O)CNC(=O)CNC(=O)CCCCCCCCCCCCCCC(=O)O)C(=O)N[C@@H](CO)C(=O)N[C@@H](CCCNC(=N)N)C(N)=O)C(C)C [Compound 103] |  | > 1000

— patent publication US12122815B2, “GIP receptor agonist peptide compounds and uses thereof” (TAKEDA PHARMACEUTICAL COMPANY LIMITED, priority 2018, dated 2024)
